# According to the supplement of paper PMC5919970:
# Structures can show the parent of a compound that is named as a salt. The full ranking holds about 2,000 compounds; the median of “fractional viability relative to vehicle” is about 0.91, and the lowest 2% start at about 0.045. Some of the results follow.
# Test system: TYKNU
# Experiment: fractional viability relative to vehicle; TYKNU is a high-grade serous ovarian cancer line; higher = less growth inhibition
# Conditions: 72 h
# Summary of the method: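 Drug treatment lasted 72 h, with cells grown at 37 °C in 5% CO2 in RPMI 1640 supplemented with 10% FBS. Beforehand, TYKNU control cells or their lentiCRISPRv2 knockout derivatives had been seeded at 500 cells per well into drug-stamped 384-well plates carrying a ~2100-compound library at 2 or 10 μM, in duplicate. Viability came from Cell Titer Glo luminescence, with averaged duplicate treatment wells normalised to duplicate control wells in the same plate position.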
# [1] = 2uM, genotype: DNM1L knockout (sgDNM1L #1)
# [2] = 2uM, genotype: sgCTRLA1 (non-targeting control)
# [3] = 10uM, genotype: DNM1L knockout (sgDNM1L #1)
# [4] = 10uM, genotype: sgCTRLA1 (non-targeting control)
SMILES,fractional viability [1],fractional viability [2],fractional viability [3],fractional viability [4]
O=C(COc1cccc2c(=O)[nH]ccc12)c1ccccc1,0.807,0.824,1.07,0.76
CCNC(=O)[C@H]1O[C@@H](n2cnc3c(N)nc(NCCc4ccc(CCC(=O)O)cc4)nc32)[C@H](O)[C@@H]1O,1.11,1.02,0.979,0.948
CS(=O)(=O)c1ccc([C@@H](O)[C@@H](CF)NC(=O)C(Cl)Cl)cc1 [Florfenicol],0.939,1.16,0.558,0.355
CCCCCOc1ccc(-c2ccc(-c3ccc(C(=O)N[C@H]4C[C@@H](O)[C@@H](O)NC(=O)[C@@H]5[C@@H](O)[C@@H](C)CN5C(=O)[C@H]([C@@H](C)O)NC(=O)[C@H]([C@H](O)[C@@H](O)c5ccc(O)cc5)NC(=O)[C@@H]5C[C@@H](O)CN5C(=O)[C@H]([C@@H](C)O)NC4=O)cc3)cc2)cc1,0.852,0.993,0.851,0.812
CC(C)c1nc(N(C)S(C)(=O)=O)nc(-c2ccc(F)cc2)c1/C=C/[C@@H](O)C[C@@H](O)CC(=O)O [Rosuvastatin Calcium],1.02,1.03,0.767,0.792
COCCCC/C(=N\OCCN)c1ccc(C(F)(F)F)cc1 [Fluvoxamine maleate],0.927,1.09,0.867,0.901
COC(=O)[C@H](c1ccccc1Cl)N1CCc2sccc2C1 [Clopidogrel],0.992,1.1,0.88,0.88
C[C@H](N[C@@H](CCc1ccccc1)C(=O)O)C(=O)N1CCC[C@H]1C(=O)O [Enalaprilat Dihydrate],0.968,1.08,0.906,0.897
NC(=O)N1CCC(CC(=O)N2CCC([C@H]3c4ncc(Br)cc4CCc4cc(Cl)cc(Br)c43)CC2)CC1 [Lonafarnib],0.705,0.752,0.396,0.527
CN(C)[C@@H]1C(O)=C(C(N)=O)C(=O)[C@@]2(O)C(O)=C3C(=O)c4c(O)cccc4[C@@](C)(O)[C@H]3C[C@@H]12 [Tetracycline HCl],1.13,1.11,0.879,0.82
O=C(Nc1cc(C(F)(F)F)cc(C(F)(F)F)c1)c1cc(Cl)ccc1O,0.239,0.232,0.122,0.126
Oc1c(Br)cc(Br)c2cccnc12 [Broxyquinoline],0.644,1.08,0.159,0.24
Nc1ccc2ncnc(NCCc3ccc(Oc4ccccc4)cc3)c2c1,0.604,0.444,0.596,0.43
CNc1nc(-c2ccc3c(N)n[nH]c3c2)cc(N2C[C@@H](C(=O)NC3CCCCC3)CC[C@H]2C)n1,0.786,0.862,0.208,0.194
CN1CCN(S(=O)(=O)c2ccc(-c3cnc(N)c(C(=O)Nc4cccnc4)n3)cc2)CC1,0.731,1.08,0.346,0.474
COc1ccc(-c2coc3cc(O)ccc3c2=O)cc1 [Formononetin],0.887,1.05,0.84,1
CS(=O)(=O)c1ccc(C(=O)Nc2ccc(Cl)c(-c3ccccn3)c2)c(Cl)c1 [Vismodegib (GDC-0449)],1.09,1.11,0.873,1.17
COc1ccc(CC(C)NCC(O)c2ccc(O)c(NC=O)c2)cc1 (stereo not given) [Formoterol Hemifumarate],0.759,0.786,0.661,0.749
"Cc1ccc2c(c1)C(=O)C1(O)CCN(c3ccccc3)C1=N2 (single isomer, unassigned; (-)) [(-)-Blebbistatin]",0.841,1.01,0.7,0.985
CC(C)C[C@H](NC(=O)[C@H](Cc1ccccc1)NC(=O)c1cnccn1)B(O)O [Bortezomib (PS-341)],0.1,0.0838,0.101,0.0762
CC1(C)CCC(c2ccc(Cl)cc2)=C(CN2CCN(c3ccc(C(=O)NS(=O)(=O)c4ccc(N[C@H](CCN5CCOCC5)CSc5ccccc5)c(S(=O)(=O)C(F)(F)F)c4)cc3)CC2)C1 [ABT-263 (Navitoclax)],0.877,0.977,0.296,0.73
O=C(COc1ccc(C(=O)c2ccccc2)cc1)NC1CCN(Cc2ccccc2)CC1 [AdipoRon],0.774,0.949,0.575,0.596
O=C(NOCC1CC1)c1ccc(F)c(F)c1Nc1ccc(I)cc1Cl,0.693,0.805,0.247,0.247
Nc1nc(F)nc2c1ncn2[C@@H]1O[C@H](COP(=O)(O)O)[C@@H](O)[C@@H]1O [Fludarabine Phosphate],0.26,0.307,0.217,0.167
CCOC(=O)N1CCC(=C2c3ccc(Cl)cc3CCc3cccnc32)CC1 [Loratadine],1.23,1.1,0.839,1.08
CC[C@H]1OC(=O)[C@H](C)[C@@H](O[C@H]2C[C@@](C)(OC)[C@@H](O)[C@H](C)O2)[C@H](C)[C@@H](O[C@@H]2O[C@H](C)C[C@H](N(C)C)[C@H]2O)[C@](C)(O)C[C@@H](C)C(=O)[C@H](C)[C@@H](O)[C@]1(C)O [Erythromycin],1.02,1.1,0.951,0.965
c1ccc(CC2=NCCN2)cc1 [Tolazoline HCl],0.978,1.03,0.816,1.08
CC(C)(Oc1ccc(CCNC(=O)c2ccc(Cl)cc2)cc1)C(=O)O [Bezafibrate],0.813,1.09,0.711,1.02

SMILES,fractional viability [1],fractional viability [2],fractional viability [3],fractional viability [4]
O=C(O)CCc1nc(-c2ccccc2)c(-c2ccccc2)o1 [Oxaprozin],0.771,1.13,0.799,1.03
O=C(c1cc(Cc2n[nH]c(=O)c3ccccc23)ccc1F)N1CCN(C(=O)C2CC2)CC1,0.967,1.06,0.727,1.02
O=C(O)CCCc1c[nH]c2ccccc12 [3-Indolebutyric acid (IBA)],0.929,1.17,0.803,1.08
O=C1c2ccccc2C(=O)C1c1ccccc1 [Phenindione],0.918,1.13,0.798,1.05
Cc1ccc(N(CC2=NCCN2)c2cccc(O)c2)cc1 [Phentolamine Mesylate],1.02,1.12,0.918,0.906
CC(C)Nc1cc(-c2c[nH]c(C(=O)N[C@H](CO)c3cccc(Cl)c3)c2)c(Cl)cn1,0.251,0.255,0.232,0.201
CNC[C@@H](O)c1ccc(O)c(O)c1 [L-Adrenaline],0.842,1,0.784,0.91
CCc1ccc(CCOc2ccc(CC3SC(=O)NC3=O)cc2)nc1 (stereo not given) [Pioglitazone],0.886,0.965,0.758,0.766
CCc1ccc(CCOc2ccc(CC3SC(=O)NC3=O)cc2)nc1 (stereo not given) [Pioglitazone HCl],1.08,1.22,0.855,1.14
CO[C@H]1/C=C/O[C@@]2(C)Oc3c(C)c(O)c4c(O)c(c(/C=N/N5CCN(C)CC5)c(O)c4c3C2=O)NC(=O)/C(C)=C\C=C\[C@H](C)[C@H](O)[C@@H](C)[C@@H](O)[C@@H](C)[C@H](OC(C)=O)[C@@H]1C [Rifampin],0.971,1.05,0.66,0.955
Cc1c(Cl)cccc1Nc1ccccc1C(=O)O [Tolfenamic Acid],0.957,1.03,1.01,1.03
CCCSc1ccc2[nH]c(NC(=O)OC)nc2c1 [Albendazole],0.27,0.3,0.136,0.192
C#C[C@]1(OC(C)=O)CC[C@H]2[C@@H]3CCC4=C[C@@H](OC(C)=O)CC[C@@H]4[C@H]3CC[C@@]21C [Ethynodiol diacetate],1,1.19,0.788,1.09
Nc1ccc(S(=O)(=O)Nc2ncccn2)cc1 [Sulfadiazine],1.09,1.02,0.949,0.991
CCCC(C)NC(=O)c1ccc(Cl)c(Cl)c1 (stereo not given),0.893,0.909,0.756,0.714
CNC1CCC(N(Cc2cccc(-c3ccncc3)c2)C(=O)c2sc3ccccc3c2Cl)CC1 (stereo not given) [Smoothened Agonist (SAG) HCl],0.827,0.917,0.168,0.128
C=CCc1cc(OC)c(O)c(C(=O)NCCO)c1 [Alibendol],0.958,1.1,0.892,1.09
CCOc1cn(-c2ccc(F)cc2C)nc1C(=O)Nc1ccc(Oc2ccnc3cc(OC)c(OC)cc23)c(F)c1,0.726,1.02,0.908,0.827
C#C[C@]1(O)CC[C@H]2[C@@H]3CCC4=CC(=O)CC[C@@H]4[C@H]3CC[C@@]21C [Norethindrone],1.06,1.21,0.763,0.977
NC(=O)c1cccc2[nH]c(-c3ccc(C4CCCN4)cc3F)nc12 (stereo not given),0.801,1.01,0.782,0.798
COC(=O)C1=C(C)NC(C)=C(C(=O)OC)C1c1ccccc1[N+](=O)[O-] [Nifedipine],1,0.977,0.906,0.947
CC(C)NC[C@H](O)COc1ccc(CCOCC2CC2)cc1 [Levobetaxolol HCl],1.13,1.21,0.846,1.27
COc1cc2c(cc1O)CC[C@@H]1[C@@H]2CC[C@]2(C)[C@@H](O)CC[C@@H]12 [2-Methoxyestradiol (2-MeOE2)],0.293,0.325,0.228,0.318
Nc1ccc(O)c(C(=O)O)c1 [Mesalamine],0.863,1.02,0.955,1.06
COC(=O)N1CCN(Cc2cccc(NC(=O)Nc3ccc(C)nc3)c2F)CC1,0.991,1.18,0.966,1.15
O=C(O)CSc1cc(NS(=O)(=O)c2ccc(Br)cc2)c2ccccc2c1O,0.88,0.983,0.339,0.475
N=c1ccn2c(n1)O[C@H]1[C@H](O)[C@@H](CO)O[C@H]12 [Cyclocytidine HCl],0.735,0.582,0.499,0.387
